# Results: paper PMC7895950
# Amino acid sequences for entries named in this document (tags omitted).
# UniProt Q99496: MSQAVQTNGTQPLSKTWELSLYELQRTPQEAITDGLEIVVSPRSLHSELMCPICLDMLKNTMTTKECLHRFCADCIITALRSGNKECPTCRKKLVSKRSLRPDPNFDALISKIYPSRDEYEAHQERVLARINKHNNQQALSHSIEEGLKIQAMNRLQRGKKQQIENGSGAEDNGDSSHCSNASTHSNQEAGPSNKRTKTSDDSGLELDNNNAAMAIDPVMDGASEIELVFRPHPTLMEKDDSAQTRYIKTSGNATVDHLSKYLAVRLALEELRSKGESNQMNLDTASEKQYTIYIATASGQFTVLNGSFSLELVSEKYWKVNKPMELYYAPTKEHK
# UniProt Q15910: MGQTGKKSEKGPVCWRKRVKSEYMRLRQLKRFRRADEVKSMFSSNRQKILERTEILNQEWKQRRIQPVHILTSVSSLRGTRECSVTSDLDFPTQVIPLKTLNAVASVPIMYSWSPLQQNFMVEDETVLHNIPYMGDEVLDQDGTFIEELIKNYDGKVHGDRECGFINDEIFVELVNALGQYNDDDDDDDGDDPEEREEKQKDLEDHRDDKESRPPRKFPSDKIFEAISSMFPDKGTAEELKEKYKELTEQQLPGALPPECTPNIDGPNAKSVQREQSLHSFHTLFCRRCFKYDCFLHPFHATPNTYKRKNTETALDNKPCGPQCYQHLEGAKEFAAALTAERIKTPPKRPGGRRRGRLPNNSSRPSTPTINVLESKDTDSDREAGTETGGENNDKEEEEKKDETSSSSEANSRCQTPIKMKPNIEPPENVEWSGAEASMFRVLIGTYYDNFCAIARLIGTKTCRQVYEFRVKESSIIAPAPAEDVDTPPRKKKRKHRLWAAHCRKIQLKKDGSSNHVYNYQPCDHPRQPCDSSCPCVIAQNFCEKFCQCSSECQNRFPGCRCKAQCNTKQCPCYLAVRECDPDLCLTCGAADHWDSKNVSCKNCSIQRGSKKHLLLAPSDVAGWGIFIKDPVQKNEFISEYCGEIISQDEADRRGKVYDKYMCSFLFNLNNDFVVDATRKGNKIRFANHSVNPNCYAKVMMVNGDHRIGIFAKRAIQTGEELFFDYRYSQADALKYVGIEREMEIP
# UniProt O95863: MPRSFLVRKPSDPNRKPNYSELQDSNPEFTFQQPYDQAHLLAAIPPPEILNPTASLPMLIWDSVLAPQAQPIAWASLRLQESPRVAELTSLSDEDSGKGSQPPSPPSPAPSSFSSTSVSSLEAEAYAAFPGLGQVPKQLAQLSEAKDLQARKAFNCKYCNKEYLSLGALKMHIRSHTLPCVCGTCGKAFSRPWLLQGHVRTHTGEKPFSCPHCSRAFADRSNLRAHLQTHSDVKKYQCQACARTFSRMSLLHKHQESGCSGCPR
# UniProt Q13547: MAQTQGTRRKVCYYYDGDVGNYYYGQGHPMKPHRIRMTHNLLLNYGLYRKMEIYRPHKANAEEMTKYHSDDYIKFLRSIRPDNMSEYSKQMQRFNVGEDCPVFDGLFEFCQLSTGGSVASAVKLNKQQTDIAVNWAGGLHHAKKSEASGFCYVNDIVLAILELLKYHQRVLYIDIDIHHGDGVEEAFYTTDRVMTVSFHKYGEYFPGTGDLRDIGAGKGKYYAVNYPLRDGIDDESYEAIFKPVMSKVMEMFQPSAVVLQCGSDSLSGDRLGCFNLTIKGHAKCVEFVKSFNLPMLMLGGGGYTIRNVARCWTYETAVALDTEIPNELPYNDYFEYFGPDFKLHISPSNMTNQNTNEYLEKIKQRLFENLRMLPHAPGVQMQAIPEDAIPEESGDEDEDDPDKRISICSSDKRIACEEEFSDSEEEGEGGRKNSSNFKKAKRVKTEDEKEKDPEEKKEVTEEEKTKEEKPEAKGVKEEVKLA
# UniProt O00571: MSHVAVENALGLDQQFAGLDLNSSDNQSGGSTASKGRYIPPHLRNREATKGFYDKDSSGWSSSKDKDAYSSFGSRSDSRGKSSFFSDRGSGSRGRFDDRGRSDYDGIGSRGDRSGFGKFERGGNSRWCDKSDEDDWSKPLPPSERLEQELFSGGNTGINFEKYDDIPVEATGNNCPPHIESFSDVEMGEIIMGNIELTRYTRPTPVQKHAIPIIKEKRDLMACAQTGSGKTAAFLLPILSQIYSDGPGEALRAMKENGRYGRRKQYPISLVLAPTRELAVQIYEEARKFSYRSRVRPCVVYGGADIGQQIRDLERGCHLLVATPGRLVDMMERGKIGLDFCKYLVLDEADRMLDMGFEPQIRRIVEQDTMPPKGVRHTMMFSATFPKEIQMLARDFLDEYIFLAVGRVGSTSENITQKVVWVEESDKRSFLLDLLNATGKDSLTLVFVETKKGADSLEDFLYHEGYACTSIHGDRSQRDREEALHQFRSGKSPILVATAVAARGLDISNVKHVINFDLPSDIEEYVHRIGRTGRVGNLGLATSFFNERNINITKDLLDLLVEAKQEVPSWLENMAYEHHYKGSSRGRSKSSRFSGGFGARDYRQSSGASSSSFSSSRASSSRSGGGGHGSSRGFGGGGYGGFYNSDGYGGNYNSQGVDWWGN
# UniProt P17844: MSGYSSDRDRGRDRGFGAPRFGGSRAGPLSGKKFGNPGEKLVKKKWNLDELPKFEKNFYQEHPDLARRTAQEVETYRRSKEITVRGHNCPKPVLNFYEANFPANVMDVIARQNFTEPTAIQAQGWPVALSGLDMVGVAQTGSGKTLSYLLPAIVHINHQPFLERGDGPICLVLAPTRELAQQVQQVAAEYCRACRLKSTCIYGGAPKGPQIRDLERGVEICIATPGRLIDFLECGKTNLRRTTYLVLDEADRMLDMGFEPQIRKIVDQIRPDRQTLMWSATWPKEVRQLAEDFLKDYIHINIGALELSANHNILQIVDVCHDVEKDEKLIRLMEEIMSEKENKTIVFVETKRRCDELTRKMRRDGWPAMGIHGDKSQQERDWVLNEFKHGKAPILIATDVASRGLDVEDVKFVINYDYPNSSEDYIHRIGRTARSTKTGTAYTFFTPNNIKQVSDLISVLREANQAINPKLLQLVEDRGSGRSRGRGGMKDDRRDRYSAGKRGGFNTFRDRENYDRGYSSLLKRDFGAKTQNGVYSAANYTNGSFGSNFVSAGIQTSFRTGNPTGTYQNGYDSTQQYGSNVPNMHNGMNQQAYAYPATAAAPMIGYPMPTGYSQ
# Results are given in words; binding and its absence hold for the method and conditions named. Binding seen in cells or lysates may run through a third protein. Some results given as binding are weak or reduced against the parent protein; the word gives no strength. For part of these data: Where a sequence is shown, tags or fusion partners need not be part of it.
# Tests used:
# [1] = molecular target: Ring1b stably overexpressed in 10A cells (10A-Ring1b) (UniProt Q99496); test: co-IP; lysate of 10A-Ring1b cells (MCF-10A stably overexpressing Ring1b); antibodies and protein A/G magnetic beads, western blot
# [2] = molecular target: Ring1b (endogenous, breast cell lines) (human (endogenous in MCF-10A, MCF-7, MDA-MB-231)) (UniProt Q99496); test: co-IP; lysate of MCF-7 cells, endogenous proteins; antibodies and protein A/G magnetic beads, western blot
# [3] = molecular target: Ring1b (endogenous, breast cell lines) (human (endogenous in MCF-10A, MCF-7, MDA-MB-231)) (UniProt Q99496); test: co-IP; lysate of 231 (MDA-MB-231) cells, endogenous proteins; antibodies and protein A/G magnetic beads, western blot
# HA-Ring1b = HA-Ring1b (UniProt Q99496); test: co-IP; 293T cells transfected with plasmids as indicated for 24 h; RIPA lysates, antibodies and protein A/G magnetic beads, western blot
# Flag-Twist2 = molecular target: T1, Flag-Twist2 (UniProt Q8WVJ9); test: as above
# T1 sequence: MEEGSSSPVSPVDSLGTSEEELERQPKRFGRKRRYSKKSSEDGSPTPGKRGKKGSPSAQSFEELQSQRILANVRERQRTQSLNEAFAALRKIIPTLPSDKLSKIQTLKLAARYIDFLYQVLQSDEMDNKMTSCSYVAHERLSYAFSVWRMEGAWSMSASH
# Ezh2 (in 293T cells) = Ezh2 (in 293T cells) (UniProt Q15910); test: as above
# Flag-Snail1 = Flag-Snail1 (UniProt O95863); test: as above
# HA-HDAC1 = HA-HDAC1 (UniProt Q13547); test: as above
Substance,binding [1],binding [2],binding [3],binding (HA-Ring1b),binding (Flag-Twist2),binding (Ezh2 (in 293T cells)),binding (Flag-Snail1),binding (HA-HDAC1)
"DDX3X (endogenous, breast cell lines) (from UniProt O00571 1-662)",binds,binds,binds,–,–,–,–,–
"DDX5 (endogenous, breast cell lines) (from UniProt P17844 1-614)",binds,binds,binds,–,–,–,–,–
Flag-DDX5 (from UniProt P17844 1-614),–,–,–,binds,no binding,binds,no binding,–

# Next, values leading:
binding [1],binding [2],binding [3],binding (HA-Ring1b),binding (Flag-Twist2),binding (Ezh2 (in 293T cells)),binding (Flag-Snail1),binding (HA-HDAC1),Substance
–,–,–,binds,no binding,binds,–,–,Flag-DDX3X (from UniProt O00571 1-662)
–,–,–,–,–,binds,–,binds,Flag-Snail1 (from UniProt O95863 1-264)
